Test results published in PubChem BioAssay AID1745845 (National Center for Advancing Translational Sciences (NCATS), 2022).
Among all 360,000 compounds or so, about 2,600 (0.72%) were called active. This list was built around the results that the source calls inconclusive (neither active nor inactive); the mix of calls is not that of the screen. Calls come from the whole dose curve; as a rule, active = well fitted inhibition curve with a large enough effect; inconclusive = small, poorly fitted or top-dose-only effect; inactive = no such curve, though single readings can be large or run the other way. Potencies beside an inconclusive call are fits to weak or partial responses and may not hold up.

Assay: Primary qHTS for Inhibitors of ATXN expression; note: nearly all actives have a fitted effect of over 55% in size
Conditions: HEK-293 ATXN2-luciferase reporter, luminescence, 24 h; series mostly up to 57 µM
Summary of the method: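 ATXN2-luciferase reporter cells (luciferase flanked by upstream and downstream ATXN2 gene portions) were treated 24 h at 37 °C with compounds at up to 57 uM. SteadyGlo luminescence gave expression; GF-AFC fluorescence gave viability.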
Potency is the fitted concentration of half-maximal effect; tags give direction and shape of the fitted curve.

| Structure (SMILES) | Potency |
| --- | --- |
| CC(=O)OCC(=O)C1(O)CCC2C3CC(F)C4=CC(=O)CCC4(C)C3C(O)CC21C (stereo not given) | inactive |
| O=C(CSc1nnc2scc(-c3ccccc3)n12)Nc1nsc(-c2ccccc2)n1 | inactive |
| CCN1CCN(Cc2ccc(NC(=O)c3cc(NC(=O)c4cnn(-c5ccccc5)c4N)cc(OC)c3)cc2C(F)(F)F)CC1 | inconclusive: 25.1 µM [inhibitor, single point] |
| CCOc1ccc2nc(N(CCCN(C)C)C(=O)c3ccc(S(=O)(=O)N4CCCC4)cc3)sc2c1 | inconclusive: 1 µM [inhibitor, partial curve, poor fit] |
| Cc1c(/C=N/NC(=O)c2ccccc2O)c2ccccn2c1C(=O)c1ccc(F)cc1 | inconclusive: 25.1 µM [inhibitor, single point] |
| C[C@H](CO)N1C[C@H](C)[C@@H](CN(C)S(=O)(=O)c2ccccc2)Oc2ccc(NC(=O)Nc3ccccc3)cc2C1=O | inconclusive: 25.1 µM [inhibitor, partial curve, poor fit] |
| CC(C)c1nc(SCC(=O)c2ccc(F)cc2)c2ccccc2n1 | inactive |
| CCCn1c(CC)nc([N+](=O)[O-])c1S(=O)(=O)c1ccccc1 | inconclusive: 39.8 µM [inhibitor, single point] |
| Cc1ccc(Cn2c(C(CO)Nc3nc(-c4ccc(F)cc4)cs3)nc3ccccc32)cc1 (stereo not given) | inconclusive: 39.8 µM [inhibitor, single point] |
| Oc1ccc(C[C@@H](CN2CCCC2CN2C(=S)NC[C@@H]2Cc2ccccc2)N2C[C@H](Cc3ccccc3)N(CC3CCCCCC3)C2=S)cc1 (stereo not given in full) | inactive |
| N#CC1=C(N)Oc2cc3ccccc3cc2C1c1cccnc1 (stereo not given) | inconclusive: 12.6 µM [inhibitor, partial curve, poor fit] |
| CCOc1cc(-c2nccc3cc(OC)c(OC)cc23)cc(OCC)c1OCC | inconclusive: 14.1 µM [inhibitor, single point] |
| COc1ccc(C(=O)/C=C/C(=O)N(Cc2ccccc2OC)C(C(=O)NC2CCCCC2)c2ccncc2)c(O)c1 (stereo not given) | active: 23.8 µM |
| Cc1ccc2c(Br)cc(Br)c(O)c2n1 | active: 6.31 µM |
| CCOC(=O)c1cc(-c2ccccc2)n(CC2CC(c3ccc(OC)cc3)=NO2)n1 (stereo not given) | inconclusive: 39.8 µM [inhibitor, single point] |
| CC(/C=C/c1ccc(N(C)C)cc1)=N\N=C1\NC(=O)CC(C(=O)Nc2ccccc2)S1 (stereo not given) | inactive |
| Cc1ccc(C)c(S(=O)(=O)Nc2cc(SCC(=O)O)c(O)c3ccccc23)c1 | inconclusive: 28.2 µM [inhibitor, partial curve, poor fit] |
| C#CCNC(=O)C1=C[C@H](c2csc3ccccc23)C[C@H](OCc2ccc(CO)cc2)O1 | inconclusive: 31.6 µM [inhibitor, partial curve, poor fit] |
| Cc1cc(NC(=O)Cn2c(=O)oc3cc(S(=O)(=O)N4CCCC4)ccc32)ccc1Br | inconclusive: 14.1 µM [inhibitor, partial curve, poor fit] |
| CCOC(=O)c1cnc2c(C)cc(Cl)cc2c1NCCCN1CCOCC1 | inactive |

| Structure (SMILES) | Potency |
| --- | --- |
| CN(C)c1ccc(C(=O)N2CCN(c3cc(C(F)(F)F)nc4ccccc34)CC2)cc1 | inconclusive: 11.9 µM [inhibitor, partial curve] |
| CCn1cc2nc(SCc3ccc(F)cc3)n(CCc3ccccc3)c(=O)c2n1 | inconclusive: 39.8 µM [inhibitor, single point] |
| CCCCCn1nnnc1-c1nc2cc3ccccc3cc2[nH]c1=O | inconclusive: 22.4 µM [inhibitor, partial curve, poor fit] |
| COc1ccc2cc(CNc3ccc(C)cc3)c(=O)n(CC(=O)Nc3cccc(Cl)c3C)c2c1 | inactive |
| CC1CC(C)CN(C(=O)COC(=O)c2c[nH]c3ccccc23)C1 (stereo not given) | inactive |
| COc1ccc(C(=O)NC2CCCc3c2cnn3-c2ccc(C)c(C)c2)c(OC)c1OC (stereo not given) | inconclusive: 3.16 µM [inhibitor, partial curve, poor fit] |
| COc1ccc(-n2nc3c(N4CCC(C(=O)NCCc5ccccc5)CC4)nnc(C)c3c2C)cc1 | inactive |
| CCOC(=O)[C@]12CCC=C1N(Cc1ccc3c(c1)OCO3)C(=O)[C@H](CC(=O)NCCCCc1ccccc1)C2 | inconclusive: 39.8 µM [inhibitor, single point] |
| O=C1NC(Cc2ccccc2)c2nc3ccccc3c(=O)n2-c2cc3ccccc3cc21 (stereo not given) | inconclusive: 15.8 µM [inhibitor, partial curve, poor fit] |
| C[C@@H]1CC[C@H]2C(=O)N3[C@@H](CC[C@@H](C)[C@@H]3c3ccc(Br)cc3)C(=O)N2[C@H]1c1ccc(Br)cc1 | inconclusive: 25.1 µM [inhibitor, single point] |
| CS(=O)(=O)c1ccc(Nc2nc(C(N)Cc3ccc(Cl)cc3)cs2)cc1 (stereo not given) | inconclusive: 25.1 µM [inhibitor, single point] |
| COc1ccccc1N1CCN(Cc2cc(=O)oc3ccccc23)CC1 | inactive |
| CC1Sc2ccc(C(=O)NCc3ccccn3)cc2NC1=O (stereo not given) | inconclusive: 2 µM [inhibitor, full curve, poor fit] |
| CN1CCC(OC(c2ccccc2)c2ccc(Cl)cc2)C1 (stereo not given) | inconclusive: 31.6 µM [inhibitor, single point] |
| COc1cc(N/N=C/c2ccccc2O)ncn1 | inconclusive: 39.8 µM [inhibitor, single point] |
| O=C1C2CCCCC2C(=O)N1c1ccc(NC2CCCCC2)c([N+](=O)[O-])c1 (stereo not given) | inactive |
| O=C(NCc1ccco1)/C(=C/c1cccc(C(F)(F)F)c1)c1nc2ccccc2[nH]1 | inconclusive: 31.6 µM [inhibitor, single point] |
| C=C1C(=O)O[C@H]2C[C@H]1[C@@H](OC(C)=O)C/C(C)=C/CC/C(C)=C\CC[C@]2(C)O | active: 5.62 µM |
| COc1cccc(N2CCN(c3ncnc4c3cnn4-c3ccc(C)cc3C)CC2)c1 | active: 7.94 µM |
| CCN1C(=NCc2cccc(Cl)c2)N[C@@H](c2cccc(F)c2)C(C(=O)OC)=C1C | inconclusive: 25.1 µM [inhibitor, single point] |
